Out of some 340,000 compounds screened, about 6,900 (2%) were called active. No stated cut-off is given here; in the data, active means inhibition above about 30%; inactive means below that, where a call was filed. The list shows a part of the results, in another mix than the full data. The source gives no active or inactive call for entries shown without one.

The target in this experiment is D(2) dopamine receptor (Homo sapiens) (UniProt P14416). Kind of experiment: HTS Assay for Allosteric Antagonists of the Human D2 Dopamine Receptor: Primary Screen for Antagonists. Further: 0% is about no effect. As to conditions: HEK293 TREx D2 cells, calcium flux, dopamine EC80; at 10 µM; stronger effect = higher value. The method in brief: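 Tetracycline-induced HEK293 T-REx cells expressing D2 force-coupled to calcium signalling were dye-loaded, exposed to compound for 180 s, then challenged with an EC80 of dopamine; calcium flux was followed kinetically for a further 180 s.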
UniProt P14416, sequence (P14416 whole entry, looked up): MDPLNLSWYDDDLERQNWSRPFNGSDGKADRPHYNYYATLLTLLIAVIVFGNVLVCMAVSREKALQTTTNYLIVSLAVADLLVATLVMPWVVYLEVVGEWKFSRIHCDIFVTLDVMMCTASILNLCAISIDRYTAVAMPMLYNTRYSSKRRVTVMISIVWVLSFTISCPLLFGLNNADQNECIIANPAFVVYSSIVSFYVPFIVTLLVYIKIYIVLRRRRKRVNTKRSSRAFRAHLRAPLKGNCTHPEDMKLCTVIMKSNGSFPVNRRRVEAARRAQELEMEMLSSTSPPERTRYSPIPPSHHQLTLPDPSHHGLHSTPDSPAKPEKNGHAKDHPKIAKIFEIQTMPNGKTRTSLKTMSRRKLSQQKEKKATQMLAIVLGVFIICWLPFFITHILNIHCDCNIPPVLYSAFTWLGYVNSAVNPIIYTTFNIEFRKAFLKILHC
Regarding `COc1ccc(CCNC(=O)c2ccc(CS(=O)(=O)c3ccc(C)cc3)o2)cc1OC`, the inhibition is 2.35%.
For `COc1cccc(N2CCN(S(=O)(=O)c3ccc(-c4cnc(C5CC5)o4)cc3)CC2)c1` the value was -8.38%; for `Cc1ccc(-c2nnc(Nc3ccc(C(N)=O)cc3)c3ccccc23)cc1S(=O)(=O)N1CCCCC1`, 7.17%; for `COc1ccccc1CNC(=O)c1c2c(nc3ccccc13)C(=O)N(C1CCCCC1)C2`, -16.8%.
In the case of `CSc1cccc(NC(=O)CN(C)S(=O)(=O)c2ccc3c(c2)n(C)c(=O)c(=O)n3C)c1` it was 0.135%.
In the case of `Cc1nn2c(=O)cc(COC(=O)c3ccc(C(C)(C)C)cc3)nc2s1` it was -1.7%; in that of `O=c1ccc2cc(S(=O)(=O)N3CCCC3)ccc2[nH]1`, 5.2%.
`COc1cc(NC(=O)c2ccc(C(=O)Nc3cc(OC)c(Cl)cc3OC)cc2)c(OC)cc1Cl`: the inhibition is -14.2%.
In the case of `CCCN1CCN(CCCNC(=O)Cn2nc(C)n3c(cc4cc(F)ccc43)c2=O)CC1` it was 20.9%; in that of `CCC(=O)N1CCc2cc(Br)cc(S(=O)(=O)CCC(=O)NCc3ccccc3)c21`, 0.343%; in that of `COc1cccc(NC(=O)c2cc(CN3CCOCC3)on2)c1`, 10.2%.
In the case of `Cc1cccc(NC2=NCC(=O)N2CCc2ccccc2)c1` it was active: 37.3%.
In the case of `Cc1oc(-c2cccc(F)c2)nc1CN1CCCCC1CCn1cccn1` (configuration not stated) it was active: 45.2%.
As to `CCOc1ccc(CNC(=O)COc2cc(=O)n(C)c3ccccc23)cc1`, the inhibition amounted to 2.79%.
For `CC1=C(C(=O)Nc2ccc(C)cc2)C(c2ccccc2Cl)n2nnnc2N1` (configuration not stated) the value was 4.22%; for `Cc1ccc(NC(=O)c2cc(-c3ccc4c(c3)OCO4)on2)cc1`, -17.5%; for `COc1ccc(-c2csc(C)n2)cc1Br`, active: 36.4%.
In the case of `Cc1oc(-c2ccccc2)nc1CSc1nc2c(c(=O)[nH]1)CCC2` it was active: 35.1%; in that of `Fc1ccc(CNc2nc3c(-c4ccc(F)cc4)nnn3c3ccccc23)cc1`, -1.6%.
In the case of `Cc1ccc(NC(=O)NCCc2c(C)nn(C)c2C)c(Cl)c1` it was -2.45%; in that of `COc1cc(C(=O)NCc2ccc3c(c2)CCN3C(=O)c2ccncc2)cc(OC)c1OC`, 23.4%; in that of `COCCCNC(=O)CN1C(=O)c2c(c3ccccc3n2C)C1c1ccc(OC)cc1` (configuration not stated), 14.7%.
As for `COc1cccc(/C=C/c2nc(C#N)c(N(C)Cc3ccccc3)o2)c1`, the inhibition is -7.67%.
Turning to `COc1ccc(-c2noc(CSCC(=O)Nc3ccc(C)cc3Br)n2)cc1OC`, the inhibition was -10.8%.
In the case of `CCCCSc1ncnc2c1sc1nc(N3CCOCC3)c3c(c12)CCCC3` it was 5.46%; in that of `Cc1ccccc1Nc1c(-c2c(F)cccc2Cl)nc2ccc(Br)cn12`, 1.74%.
In the case of `Cc1c(C(=O)Nc2cccc(C(F)(F)F)c2)sc2nc[nH]c(=O)c12` it was 12.6%; in that of `CCOC(=O)c1ccc(NC(=O)CCCn2c(=O)c3cccn3c3ccccc32)cc1`, -23.9%; in that of `Cc1cc(NC(=O)CSc2nnc(-c3ccccc3)c(-c3ccccc3)n2)no1`, active: 80.5%.
In the case of `COc1cc(OC)cc(C(=O)Nc2ccc(-c3nc4ccccc4s3)cc2C)c1` it was -17.7%; in that of `COCC(=O)n1nc(-c2ccco2)nc1NCc1ccccc1Cl`, -13.8%; in that of `CCOC(=O)c1ccc(NC(=O)Cn2cc(C(=O)C3CC3)c3ccccc32)cc1`, 13.7%.
Regarding `C=CCc1cccc2cc(-c3nc4ccc(C)cc4[nH]3)c(=O)oc12`, the inhibition was 7.64%.
For `CCc1nn(CC(=O)NCc2ccco2)c(=O)c2cc3c(OC)cccc3n12` the value was 10.2%; for `COc1ccccc1CNC(=O)CCc1c(C)c2cc3c(C)c(C)oc3cc2oc1=O`, 3.07%; for `COc1ccc(CCNC(=O)c2ccc3c(c2)N(Cc2ccc(F)cc2)C(=O)c2ccccc2S3(=O)=O)cc1OC`, -6.07%.
Turning to `COc1ccc2c(n1)Sc1nc3ccccc3nc1N2`, the inhibition is active: 49.4%.
In the case of `Nc1c(N(CCC2=CCCCC2)C(=O)CCCOc2ccccc2)c(=O)[nH]c(=O)n1Cc1ccccc1` it was active: 33%.
In the case of `COCc1nnc(NC(=O)c2cc(OC)c(OC)c(OC)c2)s1` it was -1.22%; in that of `Cc1ccc(NC(=O)C2CCCN(S(=O)(=O)c3c(C)n[nH]c3C)C2)c(C)c1` (configuration not stated), 1.26%.
In the case of `COc1ccc(OC)c(/C=C/c2nc3ccccc3c(=O)n2-c2ccc(F)c(Cl)c2)c1` it was 2.78%; in that of `COc1ccc(C(=O)/C=C/c2cn(CC(O)CN3CCc4ccccc43)c3ccccc23)cc1OC` (configuration not stated), 5.68%; in that of `CCOC(=O)c1[nH]cnc1C(=O)N1CCN(C(=O)OC(C)(C)C)CC1`, active: 31.5%.
For the molecule `CCC(C(=O)Nc1cc(C)ccc1C)n1c(=O)c(C(F)(F)F)nc2ccccc21` (configuration not stated), the inhibition amounted to 1.62%.
Regarding `Cc1cccc(CS(=O)(=O)c2ncc(Cl)c(C(=O)Nc3nnc(C(C)C)s3)n2)c1`, the inhibition is -7.91%.
On to `O=C(CCn1c(=O)c2cccn2c2cccnc21)N1CCN(c2cccc(C(F)(F)F)c2)CC1`, for which the inhibition was 5.96%.
For `O=C1C2CCCN2C(=O)N1CCCCN1CCN(c2ccccc2)CC1` (configuration not stated) the value was active: 61.9%; for `CC(C)NC(=O)c1ccc(Cn2c(SCc3ccc(F)cc3)nc3cccnc32)cc1`, 5.62%.
On to `O=C(Nc1c(C(=O)N2CCN(c3ccccc3F)CC2)oc2ccccc12)c1cccc(F)c1`, for which the inhibition was found to be 24.5%.
In the case of `COc1ccc(C2=CC(c3cc(Br)ccc3F)n3c(nc4ccccc43)N2)cc1` (configuration not stated), the inhibition is -24.4%.
In the case of `Cc1oc(-c2ccc(C(=O)Nc3ccc(F)cc3)cc2)nc1COc1ccccc1` it was 0.302%; in that of `O=C(COc1ccccc1Cl)Nc1ccc(-c2nc3ccccc3s2)cc1`, -24.2%; in that of `CC1CCCN(c2cc3c(cc2F)c(=O)c(S(=O)(=O)c2cccc(Cl)c2)cn3Cc2ccccc2)C1` (configuration not stated), 13.5%.
For `C[C@H](NC(=O)c1ccccc1)C(=O)N1CCN(c2ccccc2)CC1` the value was active: 30.4%; for `CCOC(=O)c1c(NC(=O)c2cc(-c3ccc(Br)cc3)on2)sc(C(C)=O)c1C`, -5.85%.
For `CCOC(=O)N1CCN(Cc2nc3cc(NC(C)=O)ccc3n2C)CC1` the value was active: 31.3%; for `COc1ccc(NC(=O)c2cc3ccccc3o2)c(OC)c1`, -1.78%; for `O=C(c1ccc(F)cc1)c1cn(Cc2ccccc2)c2cc3c(cc2c1=O)OCO3`, 20.7%.
`COc1ccccc1CNc1nc2c(S(=O)(=O)c3ccc(C)c(C)c3)nnn2c2ccc(Cl)cc12`: the inhibition came out at 4.34%.
In the case of `O=C(Cn1c(=O)oc2cc(S(=O)(=O)NCc3ccccc3)ccc21)Nc1cccc(F)c1` it was -5.67%; in that of `O=C(NC1CCSC1=O)c1cccc(C(=O)NC2CCSC2=O)c1` (configuration not stated), active: 42%; in that of `COc1ccc2ccccc2c1CNC(C)CCc1ccccc1` (configuration not stated), active: 30.1%.
Consider `COc1ccc(NC(=O)C(NS(=O)(=O)c2cccc3nsnc23)C(C)C)cc1` (configuration not stated), for which the inhibition was -1.05%.
On to `COc1ccccc1C(=O)Nc1ccc2nc(SCCOc3ccccc3C)sc2c1`, for which the inhibition was -7.45%.
For `Cc1ncc(CN2CCC(CO)(CCc3ccccc3)CC2)s1` the value was active: 81.1%.
In the case of `CC(C)c1ccc(N2C(=O)CSC23C(=O)N(Cc2cccc(F)c2)c2ccccc23)cc1` (configuration not stated) it was 6.97%; in that of `CN(C)CC(O)COc1cccc(OCC(O)CN(C)C)c1` (configuration not stated), active: 54.9%; in that of `COc1ccc(OC)c(CNC(=O)C2CCCN(c3ncnc4onc(-c5ccc(F)cc5)c34)C2)c1` (configuration not stated), -5.24%.
As to `Fc1ccc(NCc2nnc3n2CCCCC3)cc1Cl`, the inhibition is -12.7%.
For `CCC(C(=O)NCc1cc(OC)ccc1OC)n1nc(C)c2sc3ccccc3c2c1=O` (configuration not stated) the value was 0.766%.
In the case of `O=C1CCSc2ccc(Cl)cc2N1Cc1cccc(Cl)c1` it was active: 33.3%; in that of `COc1cccc(C(=O)N2CCC(C(=O)Nc3cccc(Cl)c3)CC2)c1`, 26.4%; in that of `Cc1cccc(CNC(=O)c2ccc(N3Cc4ccccc4Oc4ncccc43)s2)c1`, 2.99%.
Turning to `CN(C)c1cccc(C(=O)N2CCC(c3c[nH]c4ccccc34)(c3c[nH]c4ccccc34)CC2)c1`, the inhibition is 4.9%.
In the case of `O=C(COCc1cc(-c2cccs2)on1)N1CCN(c2ccccc2)CC1` it was 2.18%; in that of `COc1cc(C(=O)Nc2ccc(NC(=O)c3ccc(C(C)(C)C)cc3)cc2)cc(OC)c1OC`, 2.39%.
For `O=C(CCc1ccccc1)NNC(=O)Nc1ccccc1` the value was active: 43.6%; for `CC(=O)c1ccc(NC(=S)N2CCC(Cc3ccccc3)CC2)cc1`, active: 32.5%.
For `COc1ccc2ccccc2c1CN1CCN(C(=O)c2ccco2)CC1` the value was active: 88.5%; for `O=C1c2oc3ccccc3c(=O)c2C(c2cccc(O)c2)N1c1nncs1` (configuration not stated), -11.5%.
On to `O=C(CC1SC(N2CCOCC2)=NC1=O)Nc1ccc(Cl)cc1` (configuration not stated), for which the inhibition was active: 58.2%.
In the case of `CCOC(=O)c1c(-c2ccc(C)cc2)csc1NC(=O)c1cc(=O)c2cc(C)ccc2o1` it was 2.06%; in that of `O=C(Cn1c(=O)nc(-c2ccccc2)c2ccccc21)NCCc1ccccc1`, -8.47%; in that of `CC(=O)c1ccc(NC(=O)CN2C(=O)CN(C)C(=O)c3ccccc32)cc1`, 7.23%.
In the case of `COc1cc(Nc2nc(SCc3ccc(Cl)cc3)nc3ccccc23)cc(OC)c1` it was -2.66%; in that of `COc1ccc(-c2oc3ncn4nc(COc5cccc(C)c5C)nc4c3c2-c2ccc(OC)cc2)cc1`, 9.76%.
For `COc1cccc(CNC(=O)C2=C(C)C(=O)OC23CCN(C(C)=O)CC3)c1OC` the value was -11.6%; for `COc1cccc(C(=O)Nc2nc3nc(-c4ccccc4)cc(=O)n3[nH]2)c1`, 8.02%; for `Nc1ccc(C(=O)N2CCN(S(=O)(=O)c3ccc(Br)cc3)CC2)cc1[N+](=O)[O-]`, active: 34.7%.
As to `COc1ccc(NC(=O)C2CCN(S(=O)(=O)c3ccc4c(c3)CCCC(=O)N4)CC2)cc1OC`, the inhibition stood at 5.9%.
In the case of `O=C(Nc1ccccc1C(=O)OCc1cc(=O)n2c3c(sc2n1)CCCC3)c1ccc(F)cc1` it was 11%; in that of `COc1ccc(-c2nc(SCC(=O)Nc3ccc4c(c3)OCCO4)c(-c3ccc(F)cc3)[nH]2)cc1`, 16.3%.
In the case of `Cc1cccc(C(C)C)c1NC(=O)Cn1c(=O)oc2cc(S(=O)(=O)N3CCCC3)ccc21` it was 4.75%.
In the case of `CCc1ccc2nc(N(CCN(CC)CC)C(=O)c3cccs3)sc2c1` it was -0.852%; in that of `Cc1ccc(-c2nc(S(=O)(=O)c3ccccc3)c(N3CCN(c4ccccc4)CC3)o2)cc1`, 13.6%; in that of `Cc1ccc2nc(COc3ccccc3NC(=O)COc3ccc(F)cc3)cc(=O)n2c1`, 16.1%.
As to `COc1ccccc1N1CCN(C(=O)c2cc(CC(C)C)on2)CC1`, the inhibition came to 5.16%.

A word on the inhibition: it is the relative decrease from the control value, in per cent.

The record behind these values is PubChem BioAssay AID485344 (National Center for Advancing Translational Sciences (NCATS), 2010).
